Data from the supplement of paper PMC9334596.
Where “and” joins values, the source holds several entries; their conditions need not be identical. Equal entries are not always repeated. Over roughly 5,300 compounds, “PER2::LUC luminescence relative to vehicle control” has its median near 0.96; the highest 2% begin near 1.3. The list shows a part of the results.

Test system: mPer2Luc MEF
Experiment: PER2::LUC luminescence relative to vehicle control (fold of vehicle); higher = higher PER2::LUC reporter signal
Details: 10 µM
In short: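 Compounds from commercial libraries were added at 10 μM to 384-well plates seeded 48 h earlier with ~3000 mPer2Luc mouse embryonic fibroblasts per well. The cells were kept in DMEM with 10% FBS at 37 °C and 5% CO2. Luminescence was read with ONE-Glo 24 h and 30 h after treatment, then an alamarBlue viability assay was run. Values are PER2::LUC luminescence relative to vehicle control, as fold change.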

OC[C@H]1NC[C@H](O)[C@@H](O)[C@@H]1O
PER2::LUC luminescence (time after treatment 24 h): 0.994 | PER2::LUC luminescence (time after treatment 30 h): 0.87

Nc1nc(-c2nn(Cc3ccccc3F)c3ncccc23)ncc1C1CC1
PER2::LUC luminescence (time after treatment 24 h): 0.904 | PER2::LUC luminescence (time after treatment 30 h): 0.787

CC1(C)O[C@H]2CC(=O)OC[C@]23[C@H]2CC[C@@]4(C)[C@H](c5ccoc5)OC(=O)[C@H]5O[C@]54[C@]2(C)C(=O)C[C@@H]13
PER2::LUC luminescence (time after treatment 24 h): 0.948 | PER2::LUC luminescence (time after treatment 30 h): 0.964

CN[C@@H]1[C@@H](O[C@H]2O[C@H](CO)[C@@H](N)[C@H](O)[C@H]2O)OC2C[C@@H](N)[C@@H](O[C@H]3[C@H](O)[C@@H](O)[C@H](N)C[C@@H]3N)OC2[C@@H]1O (some centres undefined)
PER2::LUC luminescence (time after treatment 24 h): 0.965 | PER2::LUC luminescence (time after treatment 30 h): 1.04

CC12CCC(CC1=O)C2(C)C (centres undefined)
PER2::LUC luminescence (time after treatment 24 h): 0.994 and 0.752 | PER2::LUC luminescence (time after treatment 30 h): 1.3 and 1.01

C[C@@H]1NC(=O)[C@@H](N)CNC(=O)[C@H](C2CCNC(=N)N2)NC(=O)/C(=C/NC(N)=O)NC(=O)[C@H](CNC(=O)CC(N)CCCN)NC1=O.N=C1NCC[C@H]([C@@H]2NC(=O)/C(=C/NC(N)=O)NC(=O)[C@H](CNC(=O)C[C@@H](N)CCCN)NC(=O)[C@H](CO)NC(=O)[C@@H](N)CNC2=O)N1
PER2::LUC luminescence (time after treatment 24 h): 0.945 and 0.795 | PER2::LUC luminescence (time after treatment 30 h): 0.942 and 1.02

COc1ccc(/C=C/c2ccccc2F)cc1
PER2::LUC luminescence (time after treatment 24 h): 1.2 | PER2::LUC luminescence (time after treatment 30 h): 1.26

CCC[C@@H]1C[C@@H](C(=O)N[C@@H]([C@H]2O[C@H](SC)[C@H](O)[C@@H](O)[C@H]2O)[C@H](C)Cl)N(C)C1
PER2::LUC luminescence (time after treatment 24 h): 1.08 | PER2::LUC luminescence (time after treatment 30 h): 1.93

O=C(N[C@H](CO)[C@H](O)c1ccc([N+](=O)[O-])cc1)C(Cl)Cl
PER2::LUC luminescence (time after treatment 24 h): 1.19 | PER2::LUC luminescence (time after treatment 30 h): 1.01

O=C(O)CCNC(=O)c1ccccc1
PER2::LUC luminescence (time after treatment 24 h): 0.932 | PER2::LUC luminescence (time after treatment 30 h): 1.11

CCOC(=O)c1sc(NC(=O)[C@H](C(C)C)n2c(=O)[nH]c3ccccc3c2=O)nc1C
PER2::LUC luminescence (time after treatment 24 h): 1.02 | PER2::LUC luminescence (time after treatment 30 h): 0.987

CC(=O)N[C@@H](Cc1c[nH]c2ccccc12)C(=O)OCc1cc(C(F)(F)F)cc(C(F)(F)F)c1
PER2::LUC luminescence (time after treatment 24 h): 1.01 | PER2::LUC luminescence (time after treatment 30 h): 1.01

NC/C=C/C(=O)O
PER2::LUC luminescence (time after treatment 24 h): 1.05 and 0.993 | PER2::LUC luminescence (time after treatment 30 h): 1 and 1.05

CCN(CC)CCOC(=O)c1cc(Cl)c(N)cc1OC
PER2::LUC luminescence (time after treatment 24 h): 1.19 | PER2::LUC luminescence (time after treatment 30 h): 1.13

CCOc1ccc2ccccc2c1C(=O)N[C@@H]1C(=O)N2[C@@H]1SC(C)(C)[C@@H]2C(=O)O
PER2::LUC luminescence (time after treatment 24 h): 0.869 | PER2::LUC luminescence (time after treatment 30 h): 0.974

CN(C)C/C=C(/c1ccc(Br)cc1)c1cccnc1
PER2::LUC luminescence (time after treatment 24 h): 0.825 | PER2::LUC luminescence (time after treatment 30 h): 0.885

CC(C)(CO)C(O)C(=O)NCCCO (centres undefined)
PER2::LUC luminescence (time after treatment 24 h): 0.807 | PER2::LUC luminescence (time after treatment 30 h): 1.07

COc1ccc(-c2oc3cc(OC)c(OC)c(OC)c3c(=O)c2OC)cc1
PER2::LUC luminescence (time after treatment 24 h): 0.788 | PER2::LUC luminescence (time after treatment 30 h): 0.923

NCCCNCCCCNCCCN
PER2::LUC luminescence (time after treatment 24 h): 0.981 and 0.333 | PER2::LUC luminescence (time after treatment 30 h): 0.96 and 0.499

CCN(CC)CCNC(=O)c1cc(Cl)c(N)cc1OC
PER2::LUC luminescence (time after treatment 24 h): 0.813 | PER2::LUC luminescence (time after treatment 30 h): 0.886

CC1=NN(c2ccccc2)C(=O)C1
PER2::LUC luminescence (time after treatment 24 h): 0.941 and 0.531 | PER2::LUC luminescence (time after treatment 30 h): 1.01 and 0.771

N#C/C(=C\c1c[nH]c2ccccc12)C(=O)c1ccc(O)c(O)c1
PER2::LUC luminescence (time after treatment 24 h): 1.1 | PER2::LUC luminescence (time after treatment 30 h): 1.06

Cn1cnc2c1c(=O)[nH]c(=O)n2C
PER2::LUC luminescence (time after treatment 24 h): 0.864 | PER2::LUC luminescence (time after treatment 30 h): 1

N#C/C(=C\c1cn(-c2ccccc2)c2ccccc12)C(=O)O
PER2::LUC luminescence (time after treatment 24 h): 1.1 | PER2::LUC luminescence (time after treatment 30 h): 1.15

O=C(O)Cc1c[nH]c2ccccc12
PER2::LUC luminescence (time after treatment 24 h): 1.02 | PER2::LUC luminescence (time after treatment 30 h): 0.984

C[C@@H]1O[C@@H](OC[C@H]2O[C@@H](OCCc3ccc(O)c(O)c3)[C@H](O)[C@@H](O[C@@H]3O[C@@H](C)[C@H](O)[C@@H](O)[C@H]3O)[C@@H]2OC(=O)/C=C/c2ccc(O)c(O)c2)[C@H](O)[C@H](O)[C@H]1O
PER2::LUC luminescence (time after treatment 24 h): 1.09 | PER2::LUC luminescence (time after treatment 30 h): 0.982

COc1ccccc1Oc1c(NS(=O)(=O)c2ccc(C(C)(C)C)cc2)nc(-c2ncccn2)nc1OCCO
PER2::LUC luminescence (time after treatment 24 h): 1.03 | PER2::LUC luminescence (time after treatment 30 h): 1.1

O=C(N[C@H]1CCN(C(=O)c2cc(C(F)(F)F)cc(C(F)(F)F)c2)[C@H](Cc2ccc(Cl)cc2)C1)c1ccnc2ccccc12
PER2::LUC luminescence (time after treatment 24 h): 0.956 | PER2::LUC luminescence (time after treatment 30 h): 0.88

Nc1ccccc1S(N)(=O)=O
PER2::LUC luminescence (time after treatment 24 h): 1.03 | PER2::LUC luminescence (time after treatment 30 h): 1.02

O=Cc1ccccc1O[C@@H]1O[C@H](CO)[C@@H](O)[C@H](O)[C@H]1O
PER2::LUC luminescence (time after treatment 24 h): 0.95 | PER2::LUC luminescence (time after treatment 30 h): 1.02

OCc1cccnc1
PER2::LUC luminescence (time after treatment 24 h): 0.957 and 1.11 and 0.875 | PER2::LUC luminescence (time after treatment 30 h): 0.958 and 0.75 and 0.854

CCC(C)(C)C(=O)O[C@H]1C[C@@H](C)C=C2C=C[C@H](C)[C@H](CC[C@@H](O)C[C@@H](O)CC(=O)O)[C@H]21
PER2::LUC luminescence (time after treatment 24 h): 1.04 | PER2::LUC luminescence (time after treatment 30 h): 1.05

O=C(/C=C/c1ccc(O)cc1)CC(=O)/C=C/c1ccc(O)cc1
PER2::LUC luminescence (time after treatment 24 h): 1.1 | PER2::LUC luminescence (time after treatment 30 h): 1.07

C[S+]([O-])c1ccc(-c2nc(-c3ccc(F)cc3)c(-c3ccncc3)[nH]2)cc1 (centres undefined)
PER2::LUC luminescence (time after treatment 24 h): 0.747 | PER2::LUC luminescence (time after treatment 30 h): 1.16

CC1=CC(=O)C(C(C)C)=CC1=O
PER2::LUC luminescence (time after treatment 24 h): 0.861 | PER2::LUC luminescence (time after treatment 30 h): 0.986

O=C(O)Cc1c[nH]c2ccc(O)cc12
PER2::LUC luminescence (time after treatment 24 h): 1.05 | PER2::LUC luminescence (time after treatment 30 h): 0.903

CCN(c1nc(N)c(C(=O)NC(=N)N)nc1Cl)C(C)C
PER2::LUC luminescence (time after treatment 24 h): 1.04 | PER2::LUC luminescence (time after treatment 30 h): 1.06

COC(=O)C(Cc1ccccc1)NC(=O)/C(=C1/OC(=O)C(c2ccccc2)=C1O)c1ccccc1 (centres undefined)
PER2::LUC luminescence (time after treatment 24 h): 0.992 | PER2::LUC luminescence (time after treatment 30 h): 0.923

CN1CCC[C@@H]1Cc1c[nH]c2ccc(CCS(=O)(=O)c3ccccc3)cc12
PER2::LUC luminescence (time after treatment 24 h): 0.796 | PER2::LUC luminescence (time after treatment 30 h): 0.974

CC(C)[N+](C)(CCOC(=O)C1c2ccccc2Oc2ccccc21)C(C)C
PER2::LUC luminescence (time after treatment 24 h): 1.19 | PER2::LUC luminescence (time after treatment 30 h): 0.834

C[N+](C)(C)C[C@H](O)CC(=O)O
PER2::LUC luminescence (time after treatment 24 h): 0.959 | PER2::LUC luminescence (time after treatment 30 h): 0.919

CN(C)CCC=C1c2ccccc2COc2ccccc21
PER2::LUC luminescence (time after treatment 24 h): 0.963 and 0.435 | PER2::LUC luminescence (time after treatment 30 h): 0.843 and 0.535
